According to article PMC4336329 (PLoS ONE, 2015):
Hit rate of the full screen: of about 310,000 compounds, about 2,200 (0.71%) showed an effect of 50% or more. Effects have a minus sign here. The list shows a part of the results.

What follows are molecules tested against human ether-à-go-go-related gene (hERG) potassium channel (human, UniProt Q12809) (assay: primary screen, population patch clamp on CHO cells stably expressing hERG).
human ether-à-go-go-related gene (hERG) potassium channel, sequence (Q12809 whole entry, looked up): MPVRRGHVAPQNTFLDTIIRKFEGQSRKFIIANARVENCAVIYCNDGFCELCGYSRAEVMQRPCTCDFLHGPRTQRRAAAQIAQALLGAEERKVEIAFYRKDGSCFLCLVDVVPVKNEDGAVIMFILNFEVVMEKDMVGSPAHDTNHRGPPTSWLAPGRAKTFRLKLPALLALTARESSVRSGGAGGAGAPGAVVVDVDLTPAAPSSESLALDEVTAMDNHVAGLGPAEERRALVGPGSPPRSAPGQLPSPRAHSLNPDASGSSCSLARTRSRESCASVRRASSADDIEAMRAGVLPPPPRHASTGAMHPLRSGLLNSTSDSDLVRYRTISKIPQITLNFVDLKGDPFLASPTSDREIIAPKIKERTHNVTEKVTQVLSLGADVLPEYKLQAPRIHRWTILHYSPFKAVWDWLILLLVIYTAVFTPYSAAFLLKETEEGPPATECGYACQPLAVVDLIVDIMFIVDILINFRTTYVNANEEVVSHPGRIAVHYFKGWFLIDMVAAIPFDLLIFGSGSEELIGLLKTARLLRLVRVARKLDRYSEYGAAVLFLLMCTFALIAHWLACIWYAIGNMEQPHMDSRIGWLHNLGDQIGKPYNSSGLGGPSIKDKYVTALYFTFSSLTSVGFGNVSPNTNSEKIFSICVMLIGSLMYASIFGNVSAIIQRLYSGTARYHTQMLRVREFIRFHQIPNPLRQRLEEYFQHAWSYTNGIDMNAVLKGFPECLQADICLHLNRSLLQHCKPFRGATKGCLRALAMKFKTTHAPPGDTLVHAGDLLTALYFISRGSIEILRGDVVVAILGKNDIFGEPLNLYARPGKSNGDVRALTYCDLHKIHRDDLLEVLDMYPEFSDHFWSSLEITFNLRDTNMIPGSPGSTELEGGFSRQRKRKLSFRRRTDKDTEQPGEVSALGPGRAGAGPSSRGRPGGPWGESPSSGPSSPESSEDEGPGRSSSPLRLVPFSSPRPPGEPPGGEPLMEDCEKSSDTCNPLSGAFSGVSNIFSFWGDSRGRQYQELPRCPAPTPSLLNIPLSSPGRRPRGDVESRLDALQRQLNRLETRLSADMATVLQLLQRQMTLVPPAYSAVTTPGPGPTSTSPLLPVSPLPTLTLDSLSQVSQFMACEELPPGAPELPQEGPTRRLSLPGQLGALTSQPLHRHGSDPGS

| SMILES | hERG current change (%, negative = inhibition) at 1uM [%] |
| --- | --- |
| CCC(C)(C)NC(=O)C(c1cccc(OC)c1OC)N(Cc1ccc(OC)cc1)C(=O)CCC(=O)Nc1cc(C)on1 (stereo not drawn) | 3.7 |
| COC(=O)/C(=C/c1cccc([N+](=O)[O-])c1)NC(=O)c1ccc(OC)cc1 | 7.25 |
| O=c1oc(-c2ccccc2NS(=O)(=O)c2ccccc2)nc2ccccc12 | 10.3 |
| CCOC(=O)c1cc(NC(=O)c2cc(C)on2)cc(C(=O)OCC)c1 | -3.34 |
| COc1ccc(CNC(=O)CC(C)CC2=NS(=O)(=O)c3ccccc3N2)cc1 (stereo not drawn) | 14 |
| COC(=O)c1scc(C)c1NC(=O)CSc1ccc(Cl)cc1 | 2.99 |
| CC(CCc1ccco1)NC(=O)CSc1cc(=O)n(C)c2ccccc12 (stereo not drawn) | -1.14 |
| Cc1ccc(CC2CC(=O)N(CCc3ccc4c(c3)OCO4)C2=O)cc1 (stereo not drawn) | 10.9 |
| Cc1ccc(S(=O)(=O)N2CCN(S(=O)(=O)c3c(C)n[nH]c3C)CC2)cc1C | 17.2 |
| COc1ccc(OC)c(/C=C2\Oc3cc(OCC(=O)N4CC(O)C[C@H]4C(=O)O)ccc3C2=O)c1 (stereo partly drawn) | 5.77 |
| Cc1ccc(-c2nnc(SCc3ccccc3F)o2)cc1 | 5.35 |
| Cc1nc(NC(=O)c2ccccc2)sc1-c1csc(Nc2ccc(Cl)cc2)n1 | 18.7 |
| O=C(NCCCO)/C(=C/c1ccc(-c2cccc([N+](=O)[O-])c2)o1)NC(=O)c1ccccc1 | -4.53 |
| O=[N+]([O-])c1cc(Cl)cc(/C=N/Nc2nc3ccccc3s2)c1O | 6.61 |
| Cc1[nH]c(=O)c(C(=O)c2ccccc2O)cc1C(=O)O | 11.5 |
| CCC1CN(C(=O)N2CCC(C(=O)NCc3ccc(F)cc3)CC2)c2ccccc2O1 (stereo not drawn) | -1.15 |
| O=c1[nH]c(O)c(C=Nc2ccc(F)c(Cl)c2)c(=O)[nH]1 | 18 |
| CCN1CCN(C(=O)c2cccc(OC3CCN(S(C)(=O)=O)CC3)c2)[C@@H](C)C1=O | 14.5 |
| CSc1ccc(NC(=O)N2CCC(C(=O)c3ccc(F)cc3)CC2)cc1 | 5 |
| CCNC(=O)C(=O)NCc1ccncc1 | 10.7 |
| Cc1cc(=O)[nH]c(N/N=C/c2c(C)nn(-c3ccccc3)c2Cl)n1 | -5.06 |

| SMILES | hERG current change (%, negative = inhibition) at 1uM [%] |
| --- | --- |
| COc1ccc(-c2c(-c3ccc(OCC(=O)NN)cc3O)n[nH]c2C)cc1OC | 15.8 |
| CCOc1c(Br)cc(CNc2ccc(N3CCN(C(C)=O)CC3)cc2)cc1OC | 3.28 |
| COc1cc(C)ccc1OCC(=O)NC1CCCCCC1 | 19.7 |
| Cc1ccc(NC(=O)CN(C)C(=O)CNC(=O)c2sc3ccccc3c2Cl)cc1 | 9.23 |
| CCN(CC(=O)Nc1ccc(NC(C)=O)cc1)C(=O)Cc1ccccc1F | 14.1 |
| COc1cc(OC)cc(C(=O)Nc2cc(C)nn2-c2ccccc2)c1 | 8.64 |
| CCCNC(=O)CCn1nc(-c2ccccc2)c2ccccc2c1=O | 12.2 |
| N/C(=N\OC(=O)c1cccc2ccccc12)c1cccnc1 | 12.4 |
| COc1ccc(CCNS(=O)(=O)c2c(C)[nH]c(C)c2C(=O)N2CCCCC2)cc1OC | 13.5 |
| Cc1ccc(NC(=O)CSCC(=O)N2CCN(c3cccc(C(F)(F)F)c3)CC2)cc1 | 1.61 |
| N#Cc1cccc(NC(=O)CCC2CCCC2)c1 | 3.56 |
| CN1C(=O)N(C)C(c2cccc([N+](=O)[O-])c2)C2=C1CCCC2=O (stereo not drawn) | 13.3 |
| CC(C)CCN1C(=O)c2ccccc2C1C(=O)NCc1cccnc1 (stereo not drawn) | -11 |
| O=C(NCCCn1ccnc1)c1cccc(S(=O)(=O)Nc2ccc(Br)cc2)c1 | 9.88 |
| CCCNC(=O)C(=O)c1cccn1-c1ccsc1C(=O)OC | 8.16 |
| CCCCS(=O)CC(CS(=O)CCCC)OC(=O)c1ccc(C)cc1 (stereo not drawn) | -11.6 |
| Cc1ccc(NC(=O)CN2CCN(c3ccccn3)CC2)cc1S(=O)(=O)N(C)C | 3.3 |
| CCOc1ccc(NS(=O)(=O)c2csc(C(N)=O)c2)cc1 | 16.3 |
| Cc1ccccc1NC(=O)CN1C(=O)c2cccnc2Oc2ccc(Cl)cc21 | 10.1 |
| CCc1sc(C(=O)N2CCc3cc(OC)c(OC)cc3C2CC(=O)O)cc1C (stereo not drawn) | 6.74 |
| O=C(/C(=C(\[O-])c1ccccc1)[n+]1ccc2ccccc2c1)c1ccc([N+](=O)[O-])cc1 | 9.67 |

| SMILES | hERG current change (%, negative = inhibition) at 1uM [%] |
| --- | --- |
| CCOC(=O)c1ccc(NS(=O)(=O)c2cc(-c3nnnn3C(C)C)ccc2OC)cc1 | -0.687 |
| CCOc1cc(NC(=S)N2CCC(C(N)=O)CC2)c(C(=O)OC)cc1OCC | 10.7 |
| Cc1cc(C(=O)NCc2ccc3c(c2)OCO3)ccc1[N+](=O)[O-] | 12.9 |
| Cl.O=C1C2CCCN2C(=O)N1CCCN1CCN(c2cccc(Br)c2)CC1 (stereo not drawn) | 9.06 |
| O=C(N/N=C\c1ccccc1)c1ccccc1-n1cccc1 | 4.28 |
| COc1ccc(C(=O)N2CCOC2CNC(=O)C(=O)NCc2ccc(Cl)cc2)cc1 (stereo not drawn) | 3.22 |
| CCOc1ccc(/C=C/C(=O)Nc2ccccc2C(F)(F)F)cc1 | 13.9 |
| COc1ccc(NC2CCCN(C(=O)CCC(=O)c3ccc(F)cc3)C2)cc1 (stereo not drawn) | -9.95 |
| C=CCn1c(O)c(C(CC)=Nc2ccc(NC(C)=O)cc2)c(=O)[nH]c1=O | 14 |
| CCCCc1ccc(NC(=O)CN2C(=O)C3CCCCC3C2=O)cc1 (stereo not drawn) | 8.09 |
| COc1cc(SC)ccc1C(=O)OCC(=O)NC1CC1 | 9.68 |
| CC(=O)OCC(=O)[C@@]1(O)CC[C@H]2[C@@H]3CCC4=CC(=O)C=C[C@]4(C)[C@H]3[C@@H](O)C[C@@]21C | 12.4 |
| Cc1nc(C)c(C(=O)N/N=C/c2cn(C)c3ccccc23)s1 | 4.89 |
| O=C(COC(=O)c1cc(S(=O)(=O)N2CCCC2)ccc1O)Nc1ccc(S(=O)(=O)N2CCOCC2)cc1 | 6.22 |
| O=C(O)C1C2C=CC(C2)C1C(=O)Nc1ccc(C(=O)N2CCCCC2)c(Cl)c1 (stereo not drawn) | 9.87 |
| COC(=O)C1=C(C(=O)OC)[C@@H]2N(C)c3ccc(OC)cc3[C@@]23C[C@@H](C(=O)OC)N(C(=O)NC2CCCCC2)C3=N1 | 12.3 |
| O=C1Cc2cc(S(=O)(=O)NCc3ccccc3Cl)cc3c2N1CCC3 | 16.2 |
| CC(C)CN(C(=O)CN1CC=C(c2ccccc2)CC1)c1c(N)n(CC(C)C)c(=O)[nH]c1=O | 11.5 |
| COc1ccc(OC)c(NC(=S)NCCSc2ccc(C)cc2)c1 | 1.61 |
| CCC(Nc1ccc(OC)cc1)C(=O)N/N=C/c1ccc([N+](=O)[O-])cc1 (stereo not drawn) | -6.38 |
| COc1ccc(-c2nc3c(c(SCC(=O)Nc4cccc(O)c4)n2)Cc2c(CO)cnc(C)c2O3)cc1 | 12.5 |

| SMILES | hERG current change (%, negative = inhibition) at 1uM [%] |
| --- | --- |
| COc1ccc(OC)c(NC(=O)COC(=O)c2nc(Cl)ccc2Cl)c1 | 23.1 |
| O=S(=O)(CCc1nc2ccccc2[nH]1)c1ccc(Cl)cc1 | 7.75 |
| COc1ccc(CNC(=O)/C=C/c2cc([N+](=O)[O-])ccc2OC(F)F)cc1 | 18 |
| COc1ccc2cc3cc(C(=O)N4CCCCCC4)oc3nc2c1 | 11.2 |
| COC(=O)c1c(C)oc2ccc(NS(=O)(=O)c3cccs3)cc12 | 5.76 |
| O=C(Nc1ccc2nc(-c3ccco3)c(-c3ccco3)nc2c1)N1CCCCCC1 | 14.1 |
| Nc1nnc(SCc2cccc(C(F)(F)F)c2)s1 | 7.59 |
| COc1ccc2[nH]c3c(c2c1)CCN1C(=O)N([C@@H](C)C(=O)NC2CCCC2)C(=O)[C@]31C | 0.767 |
| CCOc1ccc(NS(=O)(=O)c2ccc(OCC(=O)N3CCCC3)cc2)cc1 | 8.88 |
| Cc1ccc(NC(=O)N2CCN(C)CC2)cc1NC(=O)N1CCN(C)CC1 | 11 |
| O=C(O)c1ccc(Cl)c2c1C1C=CCC1C(c1ccccn1)N2 (stereo not drawn) | 11 |
| COc1ccccc1CNC(=O)c1cccc(NC(=O)c2ccccc2)c1 | -2.98 |
| COc1ccc(-c2nnc(SCC(=O)c3cc(C)n(Cc4cccs4)c3C)o2)cc1 | 5.24 |
| CS(=O)(=O)Nc1ccc(-c2cn3c(n2)SCC3)cc1 | 14.5 |
| CCCOc1ccc(C(C)=O)cc1CC(C(N)=O)C(N)=O | 7.15 |
| COC(=O)c1nnn(-c2nc(N(C)C)nc(N(C)C)n2)c1C | -5.76 |
| O=C1CSC(c2cccc([N+](=O)[O-])c2)N1C1CC2CCC1C2 (stereo not drawn) | 13.3 |
| Cc1cccc(NC(=O)CC2C(=O)NC3CCCCC3N2C(=O)c2ccccc2Cl)c1 (stereo not drawn) | 12.9 |
| Cc1ccccc1S(=O)(=O)NNC(=O)C(=O)NNc1ccccn1 | 11.9 |
| Cc1cc(C(C)(C)C)cc(C)c1COC(=O)CN1C(=O)NC2(CCCC2)C1=O | 4.65 |
| CCOc1ccccc1NC(=O)COC(=O)CCOc1cc(C)ccc1C | 6.44 |
